Here are results for 31 molecules from PMC9911399, “Two distinct binding modes provide the RNA-binding protein RbFox with extraordinary sequence specificity”.

To fix the notation:
T1: RBFOX1 RRM (Homo sapiens, UniProt Q9NWB1 109-208)
T1 sequence: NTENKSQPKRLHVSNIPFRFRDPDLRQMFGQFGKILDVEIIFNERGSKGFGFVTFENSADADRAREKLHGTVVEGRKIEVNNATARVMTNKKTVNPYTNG

B1: AACUGCA (DNA:RNA)
RNA: GGGAGACCGGAAUUCAGAUUGUCCAACUGCAUUAAAUCCCGUCGUAGCCACCA
DNA 1: CAATCTGAATTCCGGTCTCCC
DNA 2: TGGTGGCTACGACGGGATT
B2: GAACAUA (DNA:RNA)
RNA: B1 RNA with A25G, C27A, U28C, G29A, C30U
DNA 1: CAATCTGAATTCCGGTCTCCC
DNA 2: TGGTGGCTACGACGGGATT
B3: ACUAUGA (DNA:RNA)
RNA: B1 RNA with A26C, C27U, U28A, G29U, C30G
DNA 1: CAATCTGAATTCCGGTCTCCC
DNA 2: TGGTGGCTACGACGGGATT
B4: UUCAUUC (DNA:RNA)
RNA: B1 RNA with A25U, A26U, U28A, G29U, C30U, A31C
DNA 1: CAATCTGAATTCCGGTCTCCC
DNA 2: TGGTGGCTACGACGGGATT
B5: CUGGUUG (DNA:RNA)
RNA: GGGAGACCGGAAUUCAGAUUGUCCCUGGUUGUUAAAUCCCGUCGUAGCCACCA
DNA 1: CAATCTGAATTCCGGTCTCCC
DNA 2: TGGTGGCTACGACGGGATT
B6: CUGCCUA (DNA:RNA)
RNA: B5 RNA with G28C, U29C, G31A
DNA 1: CAATCTGAATTCCGGTCTCCC
DNA 2: TGGTGGCTACGACGGGATT
B7: UUAUUCC (DNA:RNA)
RNA: B1 RNA with A25U, A26U, C27A, G29U, A31C
DNA 1: CAATCTGAATTCCGGTCTCCC
DNA 2: TGGTGGCTACGACGGGATT
B8: AGUCAAA (DNA:RNA)
RNA: B1 RNA with A26G, C27U, U28C, G29A, C30A
DNA 1: CAATCTGAATTCCGGTCTCCC
DNA 2: TGGTGGCTACGACGGGATT
B9: UGUAGUA (DNA:RNA)
RNA: B1 RNA with A25U, A26G, C27U, U28A, C30U
DNA 1: CAATCTGAATTCCGGTCTCCC
DNA 2: TGGTGGCTACGACGGGATT
B10: AGGUAAA (DNA:RNA)
RNA: B1 RNA with A26G, C27G, G29A, C30A
DNA 1: CAATCTGAATTCCGGTCTCCC
DNA 2: TGGTGGCTACGACGGGATT
B11: AGGUCGG (DNA:RNA)
RNA: B1 RNA with A26G, C27G, G29C, C30G, A31G
DNA 1: CAATCTGAATTCCGGTCTCCC
DNA 2: TGGTGGCTACGACGGGATT
B12: AGGGUUU (DNA:RNA)
RNA: B5 RNA with C25A, U26G, G31U
DNA 1: CAATCTGAATTCCGGTCTCCC
DNA 2: TGGTGGCTACGACGGGATT
B13: AAAAUCG (DNA:RNA)
RNA: B1 RNA with C27A, U28A, G29U, A31G
DNA 1: CAATCTGAATTCCGGTCTCCC
DNA 2: TGGTGGCTACGACGGGATT
B14: GAACCGC (DNA:RNA)
RNA: B1 RNA with A25G, C27A, U28C, G29C, C30G, A31C
DNA 1: CAATCTGAATTCCGGTCTCCC
DNA 2: TGGTGGCTACGACGGGATT
B15: UCCGGAG (DNA:RNA)
RNA: B1 RNA with A25U, A26C, U28G, C30A, A31G
DNA 1: CAATCTGAATTCCGGTCTCCC
DNA 2: TGGTGGCTACGACGGGATT
B16: CAGCAUU (DNA:RNA)
RNA: B5 RNA with U26A, G28C, U29A, G31U
DNA 1: CAATCTGAATTCCGGTCTCCC
DNA 2: TGGTGGCTACGACGGGATT
B17: ACUUUUC (DNA:RNA)
RNA: B1 RNA with A26C, C27U, G29U, C30U, A31C
DNA 1: CAATCTGAATTCCGGTCTCCC
DNA 2: TGGTGGCTACGACGGGATT
B18: GAGUUGC (DNA:RNA)
RNA: B1 RNA with A25G, C27G, G29U, C30G, A31C
DNA 1: CAATCTGAATTCCGGTCTCCC
DNA 2: TGGTGGCTACGACGGGATT
B19: GGCCGUG (DNA:RNA)
RNA: B1 RNA with A25G, A26G, U28C, C30U, A31G
DNA 1: CAATCTGAATTCCGGTCTCCC
DNA 2: TGGTGGCTACGACGGGATT
B20: GAAACGA (DNA:RNA)
RNA: B1 RNA with A25G, C27A, U28A, G29C, C30G
DNA 1: CAATCTGAATTCCGGTCTCCC
DNA 2: TGGTGGCTACGACGGGATT
B21: UGUCAUC (DNA:RNA)
RNA: B5 RNA with C25U, U26G, G27U, G28C, U29A, G31C
DNA 1: CAATCTGAATTCCGGTCTCCC
DNA 2: TGGTGGCTACGACGGGATT
B22: GAGCGGG (DNA:RNA)
RNA: B1 RNA with A25G, C27G, U28C, C30G, A31G
DNA 1: CAATCTGAATTCCGGTCTCCC
DNA 2: TGGTGGCTACGACGGGATT
B23: UUCUUAC (DNA:RNA)
RNA: B1 RNA with A25U, A26U, G29U, C30A, A31C
DNA 1: CAATCTGAATTCCGGTCTCCC
DNA 2: TGGTGGCTACGACGGGATT
B24: GCUACAG (DNA:RNA)
RNA: B5 RNA with C25G, U26C, G27U, G28A, U29C, U30A
DNA 1: CAATCTGAATTCCGGTCTCCC
DNA 2: TGGTGGCTACGACGGGATT
B25: CCACAUG (DNA:RNA)
RNA: B5 RNA with U26C, G27A, G28C, U29A
DNA 1: CAATCTGAATTCCGGTCTCCC
DNA 2: TGGTGGCTACGACGGGATT
B26: UCGGUCG (DNA:RNA)
RNA: B5 RNA with C25U, U26C, U30C
DNA 1: CAATCTGAATTCCGGTCTCCC
DNA 2: TGGTGGCTACGACGGGATT
B27: UCACCCC (DNA:RNA)
RNA: B1 RNA with A25U, A26C, C27A, U28C, G29C, A31C
DNA 1: CAATCTGAATTCCGGTCTCCC
DNA 2: TGGTGGCTACGACGGGATT
B28: AUUAUUA (DNA:RNA)
RNA: B5 RNA with C25A, G27U, G28A, G31A
DNA 1: CAATCTGAATTCCGGTCTCCC
DNA 2: TGGTGGCTACGACGGGATT
B29: ACAGGAA (DNA:RNA)
RNA: B1 RNA with A26C, C27A, U28G, C30A
DNA 1: CAATCTGAATTCCGGTCTCCC
DNA 2: TGGTGGCTACGACGGGATT
B30: GGGUACG (DNA:RNA)
RNA: B1 RNA with A25G, A26G, C27G, G29A, A31G
DNA 1: CAATCTGAATTCCGGTCTCCC
DNA 2: TGGTGGCTACGACGGGATT
B31: UUCCCAG (DNA:RNA)
RNA: B5 RNA with C25U, G27C, G28C, U29C, U30A
DNA 1: CAATCTGAATTCCGGTCTCCC
DNA 2: TGGTGGCTACGACGGGATT

Where a chain is given by its changes, count along the chain named. The list shows a part of the results.

The assay concerns the target T1, RBFOX1 RRM. Description: EMSA; HiTS-Eq, 1 nM pool, 10 min; buffer printed only for the single-RNA assays: 10 mM Tris pH 7.5, 150 mM NaCl, 3.4 mM EDTA, 0.001% NP-40, 30 C. The following applies: tags: His6 N-terminal (pET28a); label: 5' 32P. An outline of the steps: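 Purified RbFox RRM, wild type or mutant, was incubated for 10 min in 50 µL with 1 nM of a 5′-radiolabelled RNA pool carrying 7 randomized nucleotides, whose flanks were annealed to DNA oligonucleotides, over a series of increasing protein concentrations. Unbound RNA was resolved on 8% native PAGE, cut out, reverse-transcribed, barcoded by PCR and sequenced on an Illumina HiSeq 2500. Relative association constants were derived from changes in read counts for each RNA species versus the control reaction and normalised to the cognate motif.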
For B1, the binding signal is 0.0126 KA relative to UGCAUGU.

For the molecule B2, the binding signal is 0.00334 KA relative to UGCAUGU. The result for B3 reads 0.00624 KA relative to UGCAUGU; that for B4, 0.00952 KA relative to UGCAUGU.

Turning to B5, the binding signal was 0.0304 KA relative to UGCAUGU. For the molecule B6, the binding signal was 0.0113 KA relative to UGCAUGU. Regarding B7, the binding signal was 0.00377 KA relative to UGCAUGU. The result for B8 reads 0.000317 KA relative to UGCAUGU. For B9 the value was 0.015 KA relative to UGCAUGU; for B10, 0.00137 KA relative to UGCAUGU; for B11, 0.0239 KA relative to UGCAUGU. As to B12, the binding signal was 0.0224 KA relative to UGCAUGU. The result for B13 reads 0.00246 KA relative to UGCAUGU. On to B14, for which the binding signal is 0.00516 KA relative to UGCAUGU. The result for B15 reads 0.00511 KA relative to UGCAUGU. Consider B16, for which the binding signal was 0.00507 KA relative to UGCAUGU. B17: the binding signal is 0.00801 KA relative to UGCAUGU. For B18 the value was 0.018 KA relative to UGCAUGU; for B19, 0.0101 KA relative to UGCAUGU. As to B20, the binding signal was 0.00773 KA relative to UGCAUGU. For B21 the value was 0.0135 KA relative to UGCAUGU; for B22, 0.0168 KA relative to UGCAUGU.

In the case of B23, the binding signal is 0.00693 KA relative to UGCAUGU. For B24, the binding signal is 0.0136 KA relative to UGCAUGU.

As for B25, the binding signal is 0.00835 KA relative to UGCAUGU. For B26 the value was 0.0208 KA relative to UGCAUGU. In the case of B27, the binding signal was 0.00128 KA relative to UGCAUGU. For B28 the value was 0.00154 KA relative to UGCAUGU; for B29, 0.00607 KA relative to UGCAUGU. For B30 the value was 0.0136 KA relative to UGCAUGU; for B31, 0.00757 KA relative to UGCAUGU.
